According to a compilation of properties of binary mixtures (doi:10.1016/j.molliq.2022.118621):
The densities may have been worked out from excess volumes.

Assay: xn = mol fraction of the nth substance listed
Settings: 100 kPa

CC(O)C(=O)[O-].CCOCCn1cc[n+](C)c1 + O
mass density [kg/m3]
Settings	288.15 K	293.15 K	298.15 K	303.15 K	308.15 K	313.15 K	318.15 K
x1 = 0.8091	1135.3	–	1127.8	1124.2	–	1116.8	1113.2
x1 = 0.8366	1135.5	–	1128	1124.4	–	1117	1113.4
x1 = 0.87	1135.7	1132	–	1124.6	–	1117.3	1113.7
x1 = 0.9014	1135.9	–	1128.5	1124.8	1121.2	1117.5	–
x1 = 0.9386	1136.2	1132.5	1128.7	–	1121.4	1117.8	1114.1
x1 = 1	1136.5	1132.8	1129.1	1125.4	1121.8	1118.2	1114.5

CC(=O)[O-].CCOCCn1cc[n+](C)c1 + O
mass density [kg/m3]
Settings	288.15 K	293.15 K	298.15 K	303.15 K	308.15 K	313.15 K	318.15 K
x1 = 0.8294	1106.2	1102.8	1099.2	1095.8	1092.3	1088.8	1085.2
x1 = 0.852	1106.3	1102.9	1099.4	1095.9	1092.4	–	1085.4
x1 = 0.8822	1106.5	1103	1099.5	1096.1	–	–	1085.5
x1 = 0.9125	1106.7	–	1099.7	1096.2	1092.7	1089.2	1085.7
x1 = 0.9447	1106.8	–	–	–	1092.9	1089.4	1085.9
x1 = 1	1107.1	1103.6	1100.1	1096.6	1093.2	–	1086.2
